From PubChem BioAssay AID588579 (National Center for Advancing Translational Sciences (NCATS), 2011) come the findings set out here.

Molecules are shown by their SMILES. The whole screen tested about 400,000 compounds, of which about 2,200 (0.55%) were called active. Inconclusive results (about 1%) are left out. Calls come from the whole dose curve; as a rule, active = well fitted inhibition curve with a large enough effect; inconclusive = small, poorly fitted or top-dose-only effect, or another doubt; inactive = no such curve, though single readings can be large or run the other way. Only a part is listed here, and it is no random draw. More than one record can exist for a structure, and the calls need not agree.
% is set by controls: 0 for no effect and ±100 for the full control effect; potency is the fitted concentration of half-maximal effect.

The assay addresses DNA polymerase kappa (Homo sapiens) (UniProt Q9UBT6). The experiment in a line: qHTS for Inhibitors of Polymerase Kappa. As to conditions: purified Pol kappa, fluorescent DNA synthesis assay, 10 min; series mostly up to 107 µM; activity, negative = inhibition: at the top concentration. As for the experimental part: The processing and repair of DNA interstrand crosslinks (ICL) in eukaryotic cells are extremely complex, potentially involving multiple DNA repair and damage tolerance pathways, including homologous recombination, nucleotide excision repair, translesion synthesis (TLS), and cell cycle checkpoints.
UniProt Q9UBT6, sequence (Q9UBT6 whole entry, looked up): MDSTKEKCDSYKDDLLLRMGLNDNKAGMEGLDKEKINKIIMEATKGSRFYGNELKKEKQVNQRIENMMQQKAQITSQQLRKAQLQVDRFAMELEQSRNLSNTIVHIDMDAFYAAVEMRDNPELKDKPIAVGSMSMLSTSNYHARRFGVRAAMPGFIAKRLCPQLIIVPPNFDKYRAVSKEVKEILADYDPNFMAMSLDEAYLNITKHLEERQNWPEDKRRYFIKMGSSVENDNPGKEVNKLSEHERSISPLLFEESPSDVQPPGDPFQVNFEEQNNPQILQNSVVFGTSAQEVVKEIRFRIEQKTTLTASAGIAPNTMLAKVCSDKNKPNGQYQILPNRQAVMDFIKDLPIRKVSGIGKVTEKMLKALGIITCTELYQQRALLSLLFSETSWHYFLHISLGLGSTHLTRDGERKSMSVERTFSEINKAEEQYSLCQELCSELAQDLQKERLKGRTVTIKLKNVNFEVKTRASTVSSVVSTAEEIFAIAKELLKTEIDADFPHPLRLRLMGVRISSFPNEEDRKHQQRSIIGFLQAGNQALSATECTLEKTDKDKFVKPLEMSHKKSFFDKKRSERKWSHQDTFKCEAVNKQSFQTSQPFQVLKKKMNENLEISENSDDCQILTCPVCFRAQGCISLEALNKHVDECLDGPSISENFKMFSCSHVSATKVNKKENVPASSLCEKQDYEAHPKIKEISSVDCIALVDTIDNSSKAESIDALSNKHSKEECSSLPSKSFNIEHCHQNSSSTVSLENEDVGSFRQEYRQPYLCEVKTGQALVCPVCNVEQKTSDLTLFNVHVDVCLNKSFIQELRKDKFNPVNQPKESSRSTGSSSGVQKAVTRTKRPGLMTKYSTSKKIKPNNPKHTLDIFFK
To that end, in a collaboration between the Oregon Health & Science University and the NIH Chemical Genomics Center a 1536-well high-throughput screen was developed. This fluorescent screen was assayed against the NIH Molecular Libraries Small Molecule Repository (MLSMR) to discover inhibitors of Pol Kappa.
NIH Chemical Genomics Center [NCGC]
NIH Molecular Libraries Probe Centers Network [MLPCN]
Assay Submitter (PI): Stephen Lloyd, Oregon Health & Science University
Three microliters of reagents (buffer in column 3 and 4 as negative control and 10 nM Pol kappa in columns 1, 2, and 5-48) were dispensed into a 1536-well black solid-bottom plate. Compounds (23 nL) were transferred via Kalypsys pin tool equipped with 1536-pin array. The plates were then incubated for 15 min at room temperature, and 1 uL substrate (50 nM final concentration) were then added to start the reaction and kinetically read twice at 0 min and 10 min on the Viewlux reader
A general note: Quantitative high-throughput screening tests each substance at several concentrations.
In the case of `CCc1cccc(C)c1NC(=O)Cn1nc(C)n2cccc2c1=O`, the “activity, negative = inhibition” value was inactive: 8.63%.
As for `OC[C@H]1OC(O)[C@H](O)[C@@H](O)[C@H]1O` (stereo partly drawn), the Potency result is “inactive”.
Take `Cc1cccc(NC(=O)CSc2nnc(-c3ccco3)c(-c3ccco3)n2)c1`: the Potency is active: 79.4 µM.
On the same count and under the same terms, under `Cn1c(SCC(=O)c2cc(Cl)c(Cl)s2)nnc1-c1ccco1` stands active: 31.6 µM; under `Cc1ccc(/C=c2\sc3nc(-c4ccccc4Br)nn3c2=O)o1`, active: 20 µM.
Still for that read-out and setting: under `N=C1/C(=C\c2ccc(SCc3ccco3)o2)C(=O)N=C2SC=NN12` stands active: 50.1 µM; under `Oc1cccc(/C=N/N=C/c2cccc(O)c2O)c1O`, active: 11.2 µM.
For `COc1cc(CCc2ccccc2)c(C(=O)O)c(O)c1C/C=C(/C)CCC=C(C)C`, the Potency was active: 79.4 µM.
For the molecule `COc1ccccc1C1CC(=O)Oc2cc(C)c(Cl)c(C)c21` (stereo not drawn), the “activity, negative = inhibition” value is inactive: -19.8%.
Regarding `COc1ccc2ccc(=O)oc2c1`, the “activity, negative = inhibition” value was inactive: 1.04%.
Consider `C#CCNC(=O)C1=C[C@@H](c2ccc(C#C)cc2)C[C@@H](OCc2ccc(CO)cc2)O1`, for which the “activity, negative = inhibition” value is inactive: -4.42%.
On to `Cc1ccc(CN2C(=O)N/C(=C\c3cccn3-c3cccc(C(=O)O)c3)C2=O)cc1`, for which the Potency is active: 50.1 µM.
On the same count and under the same terms, under `O=C1CSC(=S)N1/N=C/c1cc(Br)c(O)c(Br)c1` stands active: 15.8 µM; under `COc1ccc(-c2cc(=O)c3ccc(O)cc3o2)cc1`, “inactive”.
For the molecule `CCOC(=O)[C@@H]1[C@H]2COc3ccccc3[C@@H]2N2C(=O)N(c3ccc(F)cc3)C(=O)[C@]12C`, the “activity, negative = inhibition” value is inactive: -9.32%.
As to `CC(C)(C)OC(=O)N[C@@H](Cc1c[nH]c2ccccc12)C(=O)O`, the “activity, negative = inhibition” value is inactive: 12.5% [at 60.1 µM].
`COC1=CC(=Cc2c(N)n3nc(CC(=O)N4CCOCC4)sc3nc2=O)C=C(OC)C1=O`: the Potency is active: 79.4 µM.
As for `COc1ccc(C2=Nn3c(nnc3-c3ccccc3OC)SC2)cc1OCC1CC1`, the Potency was active: 39.8 µM.
With `CCc1ccc(/C(C)=N/NC(=O)CNC(=O)/C=C/c2ccco2)cc1`, the Potency was active: 31.6 µM.
Regarding `COc1ccc(/C=N/NC(=O)c2nn(-c3ccccc3)c(=O)c3c(N)scc23)cc1`, the Potency is active: 35.5 µM.
For the molecule `COc1ccc2cc([C@@H](C)C(=O)O)ccc2c1`, the “activity, negative = inhibition” value is inactive: -11.9%.
With `COc1ccc(NC(=O)CN(C)C(=O)c2cccc(-n3cccc3)c2)cc1`, the Potency is active: 44.7 µM.
With `O=C1OCCN1C(=O)[C@H]1[C@H](c2ccc([N+](=O)[O-])cc2)C(c2cccc(Cl)c2)=NN1c1ccc(Br)cc1`, the “activity, negative = inhibition” value was inactive: 1.41%.
Turning to `COC(=O)[C@@H]1[C@H]2C[C@H]3c4[nH]c5ccccc5c4CCN3C[C@@H]2CC[C@@H]1O`, the Potency entry is “inactive”.
With `CC(C)C[C@H](NC(=O)[C@H]1O[C@@H]1C(=O)O)C(=O)NCCCCN=C(N)N`, the “activity, negative = inhibition” value was inactive: 17.6% [at 60.1 µM].
Turning to `COc1cccc(N2CCN(C(=O)CCS(=O)(=O)c3ccc4c(c3)oc(=O)n4C)CC2)c1`, the “activity, negative = inhibition” value was inactive: -11.8%.
With `CSCCOC(=O)c1[nH]c2c(c1C)C(=O)CC(c1ccco1)C2` (stereo not drawn), the Potency is active: 31.6 µM.
Turning to `Oc1ccc2c(c1)OCC1(O)Cc3cc(O)c(O)cc3C21` (stereo not drawn), the “activity, negative = inhibition” value is inactive: 0%.
On the same count and under the same terms, next, `O=C1OCCN1C(=O)[C@H]1[C@H](c2ccc([N+](=O)[O-])cc2)C(c2ccc(F)cc2)=NN1c1ccc(Br)cc1`: inactive: -13.5%; `C[C@H](NC(=O)Cc1cc(F)cc(F)c1)C(=O)N[C@@H](C(=O)OC(C)(C)C)c1ccccc1`: inactive: 16.8% [at 60.1 µM]; `CCCCCCCC/C=C\CCCCCCCC(=O)NCCc1ccc(O)c(O)c1`: inactive: -14.3%.
`CC(C)(C)c1ccc([C@@H](O)CCCN2CCC(C(O)(c3ccccc3)c3ccccc3)CC2)cc1`: the activity, negative = inhibition is inactive: -7.96% [at 12 µM].
On the same count and under the same terms, under `O=C(O)[C@@H]1CCCN1` stands inactive: -5.46% [at 60.1 µM]; under `CCOC(=O)c1c(C)[nH]c(C(=O)COC(=O)C(C)N2C(=O)C3CCCCC3C2=O)c1C` (stereo not drawn), inactive: -4.73%; under `COc1ccc(-c2cc(=O)c3c(O)cc(O[C@@H]4O[C@H](CO[C@@H]5O[C@@H](C)[C@H](O)[C@@H](O)[C@H]5O)[C@@H](O)[C@H](O)[C@H]4O)cc3o2)cc1O`, inactive: -17.6%.
On the same count and under the same terms, next, `COc1cc(NC(=O)C2CCN(c3cnccn3)CC2)cc(OC)c1`: inactive: -3.92%; `Cn1cc(C=C2C(=O)Nc3cccnc32)c2ccccc21`: inactive: -8.16% [at 60.1 µM].
For the molecule `Cc1nn(-c2ccc(N3CCCCC3)nn2)c(C)c1CCC(=O)NCc1ccc(F)cc1`, the “activity, negative = inhibition” value was inactive: 26.1%.
On the same count and under the same terms, under `COc1ccc(C2CC(=O)Oc3cc(C)cc(C)c32)cc1` (stereo not drawn) stands inactive: 9.09%.
`CC(=O)NC(CC(=O)O)C(=O)O` (stereo not drawn): the Potency result was “inactive”.
On to `CC(C)(O)[C@H](O)COc1c2ccoc2cc2oc(=O)ccc12`, for which the “activity, negative = inhibition” value is inactive: -17.3%.
The same measure, in the same setting: next, `O=C(C=C(O)c1ccc(Cl)cc1)C(=O)NNC(=O)C(O)(c1ccccc1)c1ccccc1`: inactive: -9.61%; `CCOC(=O)Cn1c(=O)c2c(nc3n2CCCN3Cc2ccccc2)n(C)c1=O`: inactive: -8.84%.
Regarding `NC(CSSCC(N)C(=O)O)C(=O)O` (stereo not drawn), the Potency entry is “inactive”.
Same read-out and setting: under `CC1CCCCC1NC(=O)COC(=O)c1c2c(nc3ccccc13)/C(=C/c1ccco1)CC2` (stereo not drawn) stands active: 10 µM.
For the molecule `OCCOCCN1CCN(C(c2ccccc2)c2ccc(Cl)cc2)CC1` (stereo not drawn), the “activity, negative = inhibition” value was inactive: -3.85%.
Same read-out and setting: under `COc1ccc(CNC(=O)c2nnn(CC(=O)Nc3cc(C)cc(C)c3)c2N)cc1` stands inactive: 8.68%.
As for `Cc1cc(SCC(=O)c2cccc([N+](=O)[O-])c2)nc(=O)[nH]1`, the Potency is active: 79.4 µM.
On to `O=C(O)c1ccccc1/C=N/NC(=O)c1cc(-c2ccco2)nc2ccccc12`, for which the Potency was active: 35.5 µM.
For the molecule `CCOc1cccc2c1N[C@@H](c1ccc(C(=O)O)cc1)[C@H]1CC=C[C@@H]21`, the Potency is active: 3.98 µM.
Turning to `COc1ccc(-c2nc(Cn3c(=O)cc(C)c4c(C)nn(-c5ccccc5)c43)c(C)o2)cc1OC`, the “activity, negative = inhibition” value is inactive: 25.8%.
`C[C@@H]1O[C@@H](OC[C@H]2O[C@@H](Oc3c(-c4cccc(O)c4O)oc4cc(O)cc(O)c4c3=O)[C@H](O)[C@@H](O)[C@@H]2O)[C@H](O)[C@H](O)[C@H]1O`: the Potency is active: 7.08 µM.
For `CN(C)CC[C@@H](c1ccc(Cl)cc1)c1ccccn1`, the Potency entry is “inactive”.
Still for that read-out and setting: under `CC(N)C12CC3CC(CC(C3)C1)C2` (stereo not drawn) stands “inactive”; under `CC(=O)OCC1=C(C(=O)O)N2C(=O)C(NC(=O)Cc3ccccc3)C2SC1` (stereo not drawn), active: 44.7 µM.
As to `CCn1c(C)nc2cc(C(=O)N/N=C/c3ccc(O)c(O)c3O)ccc21`, the Potency was active: 10 µM.
Still for that read-out and setting: under `COc1cccc(C(=O)c2cn(CC(=O)NCc3ccco3)c3nc(C)ccc3c2=O)c1` stands active: 89.1 µM.
As for `N[C@@H](C(=O)N[C@@H]1C(=O)N2C(C(=O)O)=C(Cl)CS[C@H]12)c1ccccc1`, the “activity, negative = inhibition” value was inactive: -3.96% [at 60.1 µM].
